The source of these data is patent EP3057951B1, “METHYLENE LINKED QUINOLINYL MODULATORS OF ROR-GAMMA-T” (Janssen Pharmaceutica NV, priority 2013, dated 2015).

Where a name gives a salt, the structure may show the parent alone.

For the first test, the system named is IL-17 production by CD4 T cells. The experiment in a line: Human Th17 Assay (IL-17 production under Th17 differentiation conditions). The settings on record: Homo sapiens, CD4+ T, 72 h, read-out: Human Th17 Assay, IC50, IL-17 production, CD4 T cells, 3 days.
`COc1nc2ccc(C(O)(c3ccc(C)nc3C)c3cnnn3C)cc2c(Cl)c1Cc1ccc(-n2cccn2)cc1` (single isomer, unassigned) [Example 17c, (3-(4-(1H-Pyrazol-1-yl)benzyl)-4-chloro-2-methoxyquinolin-6-yl)(2,6-dimethylpyridin-3-yl)(1-methyl-1H-1,2,3-triazol-5-yl)methanol]: the IC50 was found to be 0.98 nM.

As to `COc1nc2ccc(C(O)(c3cnnn3C)c3cnc(C)n3C)cc2c(Cl)c1Cc1ccc(F)cc1` (single isomer, unassigned) [Example 65c], the half-maximal inhibitory concentration (IC50) came out at 7 nM.

As to `Cc1ccc(C(O)(c2ccc3nc(NC4CC4)c(Cc4ccc(C(F)(F)F)cc4)c(Cl)c3c2)c2cnnn2C)c(C)n1` (single isomer, unassigned) [Example 143c, {4-Chloro-2-(cyclopropylamino)-3-[4-(trifluoromethyl)benzyl]quinolin-6-yl}(2,6-dimethylpyridin-3-yl)(1-methyl-1H-1,2,3-triazol-5-yl)methanol], the IC50 turned out to be 15 nM.

With `COc1nc2ccc(C(O)(c3cnnn3C)C3CN(C)C3)cc2c(Cl)c1Cc1ccc(C(F)(F)F)cc1` (single isomer, unassigned) [Example 90c, (4-Chloro-2-methoxy-3-(4-(trifluoromethyl)benzyl)quinolin-6-yl)(1-methyl-1H-1,2,3-triazol-5-yl)(1-methylazetidin-3-yl)methanol], the IC50 came to 68 nM.

On to `Cn1cncc1C(O)(c1ccc(C(F)(F)F)nc1)c1ccc2nc(N3CCOCC3)c(Cc3ccc(-n4cccn4)cc3)c(Cl)c2c1` (single isomer, unassigned) [Example 146b, {4-Chloro-2-morpholin-4-yl-3-[4-(1H-pyrazol-1-yl)benzyl]quinolin-6-yl}(1-methyl-1H-imidazol-5-yl)[6-(trifluoromethyl)pyridin-3-yl]methanol], for which the IC50 was determined as 530 nM.

As for `COc1nc2ccc(C(N)(c3ccc(C(F)(F)F)nc3)c3cncn3C)cc2c(Cl)c1Cc1cc2ccccc2s1` (single isomer, unassigned) [Example 71b, (3-(Benzo[b]thiophen-2-ylmethyl)-4-chloro-2-methoxyquinolin-6-yl)(1-methyl-1H-imidazol-5-yl)(6-(trifluoromethyl)pyridin-3-yl)methanamine], the IC50 was determined as 190 nM.

As for `COc1nc2ccc(C(O)(c3cnnn3C)C3CCN(C(C)=O)CC3)cc2c(Cl)c1Cc1ccc(C(F)(F)F)cc1` (single isomer, unassigned) [Example 74b, 1-(4-((4-Chloro-2-methoxy-3-(4-(trifluoromethyl)benzyl)quinolin-6-yl)(hydroxy)(1-methyl-1H-1,2,3-triazol-5-yl)methyl)piperidin-1-yl)ethanone], the IC50 worked out at 25 nM.

Turning to `Cn1cncc1C(O)(c1ccc(Cl)cc1)c1ccc2nc(N3CCC3)c(Cc3ccc(-n4cccn4)cc3)c(Cl)c2c1` (single isomer, unassigned) [Example 138c, {2-Azetidin-1-yl-4-chloro-3-[4-(1H-pyrazol-1-yl)benzyl]quinolin-6-yl}(4-chlorophenyl)(1-methyl-1H-imidazol-5-yl)methanol], the IC50 came out at 720 nM.

As to `COc1nc2ccc(C(O)(c3ccc(F)cc3)c3cncn3C)cc2c(Cl)c1Cc1ccc(-n2cccn2)cc1` (stereo not shown) [Example 160a, (3-(4-(1H-Pyrazol-1-yl)benzyl)-4-chloro-2-methoxyquinolin-6-yl)(4-fluorophenyl)(1-methyl-1H-imidazol-5-yl)methanol], the 50% inhibitory concentration (IC50) stood at 89 nM.

Consider `CNC(c1ccc2nc(OC)c(Cc3ccc(C(F)(F)F)cc3)c(Cl)c2c1)(c1ccc(C)nc1C)c1cnnn1C` (single isomer, unassigned) [Example 121b, 1-(4-Chloro-2-methoxy-3-(4-(trifluoromethyl)benzyl)quinolin-6-yl)-1-(2,6-dimethylpyridin-3-yl)-N-methyl-1-(1-methyl-1H-1,2,3-triazol-5-yl)methanamine•TFA], for which the IC50 turned out to be 170 nM.

As for `CCc1nc2ccc(C(O)(c3cnnn3C)c3cnc(C)n3C)cc2c(Cl)c1Cc1ccc(C(F)(F)F)cc1` (single isomer, unassigned) [Example 25b, (4-Chloro-2-ethyl-3-(4-(trifluoromethyl)benzyl)quinolin-6-yl)(1,2-dimethyl-1H-imidazol-5-yl)(1-methyl-1H-1,2,3-triazol-5-yl)methanol], the IC50 amounted to 2.1 nM.

Take `COc1nc2ccc(C(O)(c3ccc(Cl)cc3)c3cncn3C)cc2c(C#N)c1Cc1ccc(C(F)(F)F)cc1` (single isomer, unassigned) [Example 55c, 6-((4-Chlorophenyl)(hydroxy)(1-methyl-1H-imidazol-5-yl)methyl)-2-methoxy-3-(4-(trifluoromethyl)benzyl)quinoline-4-carbonitrile]: the half-inhibitory concentration (IC50) was determined as 56 nM.

For `COc1nc2ccc(C(O)(c3cnnn3C)c3cnc(C)n3C)cc2c(Cl)c1Cc1ccc(C(F)(F)F)nc1` (single isomer, unassigned) [Example 43c, (4-Chloro-2-methoxy-3-((6-(trifluoromethyl)pyridin-3-yl)methyl)quinolin-6-yl)(1,2-dimethyl-1H-imidazol-5-yl)(1-methyl-1H-1,2,3-triazol-5-yl)methanol], the IC50 amounted to 14 nM.

On to `COc1nc2ccc(C(O)(c3ccc(C)nc3C)c3cnc(C)n3C)cc2c(Cl)c1Cc1ccc(C(F)(F)F)cc1` (single isomer, unassigned) [Example 57b, (4-Chloro-2-methoxy-3-(4-(trifluoromethyl)benzyl)quinolin-6-yl)(1,2-dimethyl-1H-imidazol-5-yl)(2,6-dimethylpyridin-3-yl)methanol], for which the IC50 was found to be 320 nM.

Take `COc1nc2ccc(C(O)(c3ccc(F)cc3)C3CCN(C(C)=O)CC3)cc2c(Cl)c1Cc1ccc(F)cc1` (single isomer, unassigned) [Example 51b, 1-(4-((4-Chloro-3-(4-fluorobenzyl)-2-methoxyquinolin-6-yl)(4-fluorophenyl)(hydroxy)methyl)piperidin-1-yl)ethanone]: the IC50 was about 6000 nM.

On to `Cn1cc(-c2nc3ccc(C(O)(c4ccc(C(F)(F)F)nc4)c4cncn4C)cc3c(C#N)c2Cc2ccccc2)cn1` (single isomer, unassigned) [Example 112b, 3-Benzyl-6-(hydroxy(1-methyl-1H-imidazol-5-yl)(6-(trifluoromethyl)pyridin-3-yl)methyl)-2-(1-methyl-1H-pyrazol-4-yl)quinoline-4-carbonitrile], for which the IC50 was 2800 nM.

Still in this test, the particulars now being: read-out: Human Th17 Assay, IC50; IL-17 production, CD4 T cells, 3 days.
`Cn1cncc1C(O)(c1ccc(C(F)(F)F)nc1)c1ccc2nc(N3CC(F)(F)C3)c(Cc3ccc(-n4cccn4)cc3)c(Cl)c2c1` (single isomer, unassigned) [Example 135c, {4-Chloro-2-(3,3-difluoroazetidin-1-yl)-3-[4-(1H-pyrazol-1-yl)benzyl]quinolin-6-yl}(1-methyl-1H-imidazol-5-yl)[6-(trifluoromethyl)pyridin-3-yl]methanol]: the IC50 is 45 nM.

Turning to `COc1nc2ccc(C(O)(c3cnnn3C)c3cnc(C)n3C)cc2c(C#N)c1Cc1ccc(C(F)(F)F)nc1` (single isomer, unassigned) [Example 44c, 6-((1,2-Dimethyl-1H-imidazol-5-yl)(hydroxy)(1-methyl-1H-1,2,3-triazol-5-yl)methyl)-2-methoxy-3-((6-(trifluoromethyl)pyridin-3-yl)methyl)quinoline-4-carbonitrile], the half-inhibitory concentration (IC50) came out at 2.5 nM.

For the compound `COc1nc2ccc(C(O)(c3cc(C)nc(C)c3)c3cnnn3C)cc2c(Cl)c1Cc1ccc(C(F)(F)F)cc1` (single isomer, unassigned) [Example 84c, (4-Chloro-2-methoxy-3-(4-(trifluoromethyl)benzyl)quinolin-6-yl)(2,6-dimethylpyridin-4-yl)(1-methyl-1H-1,2,3-triazol-5-yl)methanol], the IC50 stood at 1.7 nM.

As to `Cn1cncc1C(O)(c1ccc(C(F)(F)F)nc1)c1ccc2nc(N3CC(F)C3)c(Cc3ccc(-n4cccn4)cc3)c(Cl)c2c1` (single isomer, unassigned) [Example 147c, {4-Chloro-2-(3-fluoroazetidin-1-yl)-3-[4-(1H-pyrazol-1-yl)benzyl]quinolin-6-yl}(1-methyl-1H-imidazol-5-yl)[6-(trifluoromethyl)pyridin-3-yl]methanol], the half-inhibitory concentration (IC50) amounted to 36 nM.

Consider `COc1nc2ccc(C(O)(c3cccnc3)c3ccc(Cl)c(Cl)c3)cc2c(Cl)c1Cc1ccc(-n2cccn2)cc1` (single isomer, unassigned) [Example 161c, (3-(4-(1H-Pyrazol-1-yl)benzyl)-4-chloro-2-methoxyquinolin-6-yl)(3,4-dichlorophenyl)(pyridin-3-yl)methanol], for which the IC50 was determined as 60 nM.

With `COc1nc2ccc(C(O)(c3ccc(F)cc3)C3CCN(C(C)=O)CC3)cc2c(Cl)c1Cc1ccc(-n2cccn2)cc1` (single isomer, unassigned) [Example 157b, 1-(4-((3-(4-(1H-Pyrazol-1-yl)benzyl)4-chloro-2-methoxyquinolin-6-yl)(4-fluorophenyl)(hydroxy)methyl)piperidin-1-yl)ethanone], the IC50 amounted to 25 nM.

As to `COc1ccc(C(O)(c2cccnc2)c2ccc3nc(OC)c(Cc4ccc(-n5cccn5)cc4)c(Cl)c3c2)cc1OC` (single isomer, unassigned) [Example 159b, (3-(4-(1H-Pyrazol-1-yl)benzyl)-4-chloro-2-methoxyquinolin-6-yl)(3,4-dimethoxyphenyl)(pyridin-3-yl)methanol], the IC50 was 1800 nM.

As to `COc1nc2ccc(C(O)(c3cncn3C)C3CCOCC3)cc2c(Cl)c1Cc1ccc(-n2cccn2)cc1` (single isomer, unassigned) [Example 1b, (3-(4-(1H-Pyrazol-1-yl)benzyl)-4-chloro-2-methoxyquinolin-6-yl)(1-methyl-1H-imidazol-5-yl)(tetrahydro-2H-pyran-4-yl)methanol], the IC50 amounted to 140 nM.

As to `COc1nc2ccc(C(O)(c3cc(C)nc(C)c3)c3cnnn3C)cc2c(Cl)c1Cc1ccc(C(F)(F)F)cc1` (single isomer, unassigned) [Example 84b, (4-Chloro-2-methoxy-3-(4-(trifluoromethyl)benzyl)quinolin-6-yl)(2,6-dimethylpyridin-4-yl)(1-methyl-1H-1,2,3-triazol-5-yl)methanol], the IC50 stood at 220 nM.
